No constants are given. Whether binding was seen depends on the method and setting. For some assays here: In cells and extracts the contact can be indirect. Some results given as binding are weak or reduced against the parent protein; the word gives no strength.
Experiments:
[1] = target: PIV5/V (yeast two-hybrid fusion) (parainfluenza virus 5) (UniProt P11207); experiment: two-hybrid; yeast two-hybrid assays, data not shown; bait and prey not told
[2] = target: GST-PIV5/V (V protein of parainfluenza virus 5, GST-tagged) (parainfluenza virus 5) (UniProt P11207); experiment: pull-down; only the target purified

Substance	binding [1]	binding [2]
DDB1 (yeast two-hybrid fusion) (from UniProt Q16531 1-1140)	binds	–
STAT2 (yeast two-hybrid fusion) (from UniProt P52630 1-851)	binds	–
human DDB1 (baculovirus-expressed) (from UniProt Q16531 1-1140)	–	binds
human STAT1 (baculovirus-expressed) (from UniProt P42224 1-750)	–	no binding
human STAT2 (baculovirus-expressed) (from UniProt P52630 1-851)	–	binds

Reference: publication PMC2884952
